Data as given in PubChem BioAssay AID504841 (National Center for Advancing Translational Sciences (NCATS), 2011).
Hit rate of the full screen: of about 1,100 compounds, about 160 (15%) were called active. The shares of active, inactive and inconclusive entries below differ from those in the screen. The call rests on the fitted dose curve; in most records, active means well fitted inhibition curve with a large enough effect; inconclusive means small, poorly fitted or top-dose-only effect; inactive means no such curve, though single readings can be large or run the other way. Where the call is inconclusive, the potency comes from a doubtful curve fit.

These compounds were tested against ATP-dependent DNA helicase Q1 (Homo sapiens) (UniProt P46063) (assay: Confirmation qHTS Assay for Inhibitors of RecQ-Like Dna Helicase 1 (RECQ1) - Round 2 Cherry Picks). Conditions: recombinant RECQ1 DNA unwinding, red fluorescence; series mostly up to 119 µM; activity, negative = inhibition: at the top concentration.
Sequence of UniProt P46063 (P46063 whole entry, looked up): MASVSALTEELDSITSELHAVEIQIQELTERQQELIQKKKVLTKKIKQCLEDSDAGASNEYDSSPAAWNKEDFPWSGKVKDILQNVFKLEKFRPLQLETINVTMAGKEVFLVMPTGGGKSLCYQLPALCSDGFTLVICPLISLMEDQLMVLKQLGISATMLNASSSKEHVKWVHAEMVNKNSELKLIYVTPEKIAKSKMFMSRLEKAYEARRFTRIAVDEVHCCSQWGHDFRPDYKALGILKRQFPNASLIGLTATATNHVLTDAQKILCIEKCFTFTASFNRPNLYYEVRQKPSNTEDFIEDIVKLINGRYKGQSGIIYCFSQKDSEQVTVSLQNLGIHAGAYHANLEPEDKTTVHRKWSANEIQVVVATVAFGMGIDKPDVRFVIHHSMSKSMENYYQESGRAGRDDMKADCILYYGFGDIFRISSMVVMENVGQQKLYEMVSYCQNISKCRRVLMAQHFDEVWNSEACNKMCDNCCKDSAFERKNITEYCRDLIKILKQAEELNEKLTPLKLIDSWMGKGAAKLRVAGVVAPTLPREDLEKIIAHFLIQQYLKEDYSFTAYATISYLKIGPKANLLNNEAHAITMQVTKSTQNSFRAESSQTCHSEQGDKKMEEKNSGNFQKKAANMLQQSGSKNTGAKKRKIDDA
Method in brief: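 RECQ1T1 (50 nM) preincubated 15 min with compound, then 200 nM TAMRA/BHQ-2 forked duplex and 2 mM ATP added (final). Buffer pH 8.0 with 2.5 ug/ml poly(dI-dC); fluorescence increase read twice, 2 hours apart, at room temperature.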
Further: nearly all actives have a fitted effect of over 50% in size.
On the % scale 0 is the no-effect control and ±100 the full control effect; potency means the concentration at half of the fitted maximal effect; tags describe the fitted curve by direction and shape.

Potency, active:
CN(C)CC1CCn2c(c(C3=C(c4cn(C)c5ccccc45)C(=O)NC3=O)c3ccccc32)C1 (centres undefined) 79.4 µM
Cc1cc2nc3ccc(=[N+](C)C)cc-3sc2cc1N 15.8 µM
Nc1nc(Nc2cccc(Cl)c2)nc(NCc2ccco2)c1[N+](=O)[O-] 79.4 µM
O=C(c1ccco1)N(CCC(c1ccccc1)c1ccco1)Cc1ccccc1 (centres undefined) 44.7 µM
O=C(O)Cc1cccc(OCCCN(Cc2cccc(C(F)(F)F)c2Cl)CC(c2ccccc2)c2ccccc2)c1 25.1 µM
CCN1CCN(c2nc(Nc3ccc(NC(C)=O)cc3)nc(Nc3ccc(NC(C)=O)cc3)n2)CC1 22.4 µM
O=C1C=CC2=C3c4cc(O)c(O)cc4C[C@@]3(O)COC2=C1 25.1 µM
CN1/C(=C\C(=O)COC(=O)c2ccc(O)c(O)c2)C(C)(C)c2ccccc21 39.8 µM

Potency, inconclusive:
Cc1cc(C2C(=O)CC(=O)CC2c2ccccc2)on1 (centres undefined) 56.2 µM [inhibitor, partial curve, poor fit]
CCCCn1c(SCC(=O)NCc2ccco2)nc2ccc(N3CCOCC3)cc2c1=O 56.2 µM [inhibitor, partial curve, poor fit]
CCOC(=O)c1ccc2c(c1)nc(SCC(=O)c1cc3ccccc3o1)n2CC 50.1 µM [inhibitor, partial curve, poor fit]
CCn1c(=O)c(C(=O)NNS(=O)(=O)c2ccc(Br)cc2)c(O)c2ccccc21 50.1 µM [inhibitor, partial curve]
O=C(CC1N=C2c3ccccc3N=C(SCc3ccc(Cl)cc3)N2C1=O)NCc1ccco1 (centres undefined) 28.2 µM [inhibitor, full curve]
Cc1ccc(NC(=O)c2c3c(nc4ccccc24)CCC3)cc1S(=O)(=O)N(C)C 56.2 µM [inhibitor, partial curve]
COc1ccc(C(=O)CC(=O)c2ccc(C(C)(C)C)cc2)cc1 1.78 µM [inhibitor, full curve]
O=C(CSC1CC(=O)N(CC(c2ccccc2)c2ccccc2)C1=O)Nc1ccc(Cl)cc1 (centres undefined) 25.1 µM [inhibitor, partial curve, poor fit]
Cc1cc(C)c2nc(-c3ccccn3)cc(C(=O)Nc3ccc(S(=O)(=O)Nc4onc(C)c4C)cc3)c2c1 35.5 µM [inhibitor, partial curve]
Cc1ccc(N=C2NC(=O)/C(=C/C=C/c3ccco3)S2)cc1 63.1 µM [inhibitor, partial curve]
Cc1ccc(/C=C2/SC(=O)NC2=S)o1 79.4 µM [inhibitor, single point]
c1coc(-c2nn3c(-c4ccco4)nnc3s2)c1 56.2 µM [inhibitor, partial curve, poor fit]
Cc1cc(O)cc(O)c1C(=O)OC1(C)C(=O)C=C2C=C(/C=C/C(=O)O)OC=C2C1=O (centres undefined) 3.98 µM [inhibitor, partial curve]
CCCc1cc(=O)oc2cc(C)c(CN3CCCC3)c(O)c12 56.2 µM [inhibitor, partial curve, poor fit]
COc1ccc(NC(=O)c2noc3c2CCC3)cc1 28.2 µM [inhibitor, partial curve]
COc1cc(/C=N/N2C(=O)CSC2=S)ccc1O 39.8 µM [inhibitor, single point]
CCOC(=O)C1CCN(C(=O)Nc2ccc3nc(-c4ccco4)c(-c4ccco4)nc3c2)CC1 89.1 µM [inhibitor, partial curve]
COc1ccc(/C=C2\SC(=O)N(CC(=O)NNC(=O)c3ccccc3O)C2=O)cc1 1.26 µM [inhibitor, full curve, poor fit]
Nc1nn2cc(-c3ccc(Br)cc3)nc2c2ccccc12 56.2 µM [inhibitor, partial curve]
COc1ccccc1/C=C/C=c1\sc2nc(=O)c(Cc3ccccc3)nn2c1=O 50.1 µM [inhibitor, partial curve]
CCOC(=O)C1=C(N)n2c(s/c(=C\c3ccco3)c2=O)=C(C(=O)OCC)C1c1ccco1 (centres undefined) 22.4 µM [inhibitor, partial curve, poor fit]
CCn1c(CSc2nc3ccccc3s2)nnc1SCC(=O)c1ccc(O)c(O)c1 0.794 µM [inhibitor, full curve]
CC1CC1C(=O)Nc1nc(-c2cccs2)c(-c2cccs2)s1 (centres undefined) 31.6 µM [inhibitor, full curve]
CCC1=NN2C(=N)/C(=C\c3ccc(OCc4cc(=O)n5nc(CC)sc5n4)c(OC)c3)C(=O)N=C2S1 0.891 µM [inhibitor, full curve]

activity, negative = inhibition, inactive:
CC1(C)c2ccccc2N2CCC(=O)NC21/C=C/c1ccco1 (centres undefined) -4.15%
COCCn1c(C)cc(C(=O)COC(=O)c2ccc(NC(=O)CC#N)cc2)c1C -11.4%
Cc1ccc(-n2nc(C)c3c2OC(N)=C(C#N)C3c2ccoc2)cc1 (centres undefined) -6.7%
CC(C)=C(C#N)c1nc2ccccc2s1 -9.92%
Cc1cc(C(=O)Nn2c(C3CCCCC3)nc3ccccc3c2=O)ccc1[N+](=O)[O-] -11.3%
O=C(NC1CCCC1)c1ccc2nc(-c3ccco3)c(-c3ccco3)nc2c1 -20.7%
Cc1cccc(NC(=O)c2ccc3ccccc3n2)c1C -31.7%
C=CCn1c(NC(=O)c2ccc(Br)o2)c(S(=O)(=O)c2ccccc2)c2nc3ccccc3nc21 -12.7%
Cc1cc(C(=O)CSc2nnc(-c3cccnc3)n2-c2ccccc2F)c(C)n1CC1CCCO1 (centres undefined) -1.12%
c1ccc2oc(-c3[nH]ncc3CN3CCSCC3)cc2c1 1.7%
CCN(CC)c1cccc(OC2=NS(=O)(=O)c3ccccc32)c1 -22%
CN(C)C(=O)CSc1ncnc2scc(-c3ccccc3)c12 -7.1%
